Numbering of substitutions follows the chain as printed.
B1: CD98 (CL-huAb108)-TX (conjugate)
heavy: EVQLVQSGAEVKKPGASVKVSCKASGFTFSDYTMAWVRQAPGQGLEWVATIIYSGRGTYYRDAVKGRFTITRDNSTSTLYLELSSLRSEDTAVYYCARQSDDTYYYWGYFDYWGQGTMVTVSSASTKGPSVFPLAPSSKSTSGGTAALGCLVKDYFPEPVTVSWNSGALTSGVHTFPAVLQSSGLYSLSSVVTVPSSSLGTQTYICNVNHKPSNTKVDKKV[omitted - human IgG1 Fc with changes]
light: DIVMTQTPLSLPVTPGEPASINCKSSQSLLFSGNQKNYLAWYLQKPGQSPQLLIYWASTRQSGVPDRFSGSGSGTDFTLKISRVEAEDVGIYYCQQYYDVPYTFGQGTKLEIKRTVAAPSVFIFPPSDEQLKSGTASVVCLLNNFYPREAKVQWKVDNALQSGNSQESVTEQDSKDSTYSLSSTLTLSKADYEKHKVYACEVTHQGLSSPVTKSFNRGEC
B2: CD98 (CL-huAb102)-AAA (conjugate)
heavy: EVQLVESGGGLVQPGGSLRLSCATSGFTFIDYYMSWVRQAPGKGLEWLGFIRNKANRYTTEYSASVKGRFTISRDNSKSILYLQMNSLKTEDTAVYYCTRDRPAWFVYWGQGTLVTVSSASTKGPSVFPLAPSSKSTSGGTAALGCLVKDYFPEPVTVSWNSGALTSGVHTFPAVLQSSGLYSLSSVVTVPSSSLGTQTYICNVNHKPSNTKVDKKV[omitted - human IgG1 Fc with changes]
light: B1 light with N22S, F31Y, G33S, Q61E, I91V, D99S, V100Y, Q106G, L110V
B3: CD98 (CL-huAb108)-AAA (conjugate)
heavy: EVQLVQSGAEVKKPGASVKVSCKASGFTFSDYTMAWVRQAPGQGLEWVATIIYSGRGTYYRDAVKGRFTITRDNSTSTLYLELSSLRSEDTAVYYCARQSDDTYYYWGYFDYWGQGTMVTVSSASTKGPSVFPLAPSSKSTSGGTAALGCLVKDYFPEPVTVSWNSGALTSGVHTFPAVLQSSGLYSLSSVVTVPSSSLGTQTYICNVNHKPSNTKVDKKV[omitted - human IgG1 Fc with changes]
light: B1 light
B4: CD98 (CL-huAb104)-AAA (conjugate)
heavy: EVQLVESGGGLVQPGGSLRLSCATSGFTFIDYYMSWVRQAPGKGLEWLGFIRNKAYGYTTEYSASVKGRFTISRDNSKSILYLQMNSLKTEDTAVYYCTRDRPAWFVYWGQGTLVTVSSASTKGPSVFPLAPSSKSTSGGTAALGCLVKDYFPEPVTVSWNSGALTSGVHTFPAVLQSSGLYSLSSVVTVPSSSLGTQTYICNVNHKPSNTKVDKKV[omitted - human IgG1 Fc with changes]
light: B1 light with N22S, F31Y, G33S, Q61E, I91V, D99S, V100Y, Q106G, L110V

Key:
[1] = Size exclusion chromatography, % aggregate fraction of ADC; format: physicochemical; conditions: ADCs of Table 27
Method: Size exclusion chromatography was performed using a Shodex KW802.5 column in 0.2M potassium phosphate pH 6.2 with 0.25 mM potassium chloride and 15% IPA at a flow rate of 0.75 ml/min. The peak area absorbance at 280 nm was determined for each of the high molecular weight and monomeric eluents by integration of the area under the curve. The % aggregate fraction of the conjugate sample was determined by dividing the peak area absorbance at 280 nm for the high molecular weight eluent by the sum of the peak area absorbances at […] of the high molecular weight and monomeric eluents multiplied by 100%.

[2] = DAR determination by LC-MS
Method: LC-MS analysis was performed using an Agilent 1100 HPLC system interfaced to an Agilent LC/MSD TOF 6220 ESI mass spectrometer. The ADC was reduced with 5 mM (final concentration) BOND-BREAKER TCEP solution (Thermo Scientific, Rockford, Ill.), loaded onto a Protein Microtrap (Michrom Bioresorces, Auburn, Calif.) desalting cartridge, and eluted with a gradient of 10% B to 75% B in 0.2 minutes at ambient temperature. Mobile phase A was H2O with 0.1% formic acid (FA), mobile phase B was acetonitrile with 0.1% FA, and the flow rate was 0.2 ml/min. Electrospray-ionization time-of-flight mass spectra of the co-eluting light and heavy chains were acquired using Agilent MassHunter™ acquisition software. The extracted intensity vs. m/z spectrum was deconvoluted using the Maximum Entropy feature of MassHunter software to determine the mass of each reduced antibody fragment. DAR was calculated from the deconvoluted spectrum by summing intensities of the naked and modified peaks for the light chain and heavy chain, normalized by multiplying intensity by the number of drugs attached. The summed, normalized intensities were divided by the sum of the intensities, and the summing results for two light chains and two heavy chains produced a final average DAR value for the full ADC.

[3] = system: A549 human lung carcinoma xenograft; test: A549 FP3 xenograft tumor growth inhibition, with or without docetaxel; format: in vivo, mouse; conditions: QDx1, Ab095 8 IP, docetaxel 7.5 IV, ADC 10 mg/kg/day IP
Method: (§1) The cell lines A549 and NCI-H460 were obtained from the American Type Culture Collection (ATCC, Manassas, Va.). A549 cell line was further passaged in mice as flank xenograft to improve xenograft tumor growth, resulting in the A549-FP3 line. Cells were cultured as monolayers in RPMI-1640 culture media (Invitrogen, Carlsbad, Calif.) supplemented with 10% Fetal Bovine Serum (FBS, Hyclone, Logan, Utah). To generate xenografts, 5×10^6 (A549 and NCI-H460) viable cells were inoculated subcutaneously into the right flank of immune deficient female SCID-bg mice (Charles River Laboratories, Wilmington, Mass.). The injection volume was 0.2 ml and composed of 1:1 S-MEM:Matrigel Matrigel (BD, Franklin Lakes, N.J.). Tumors were size matched at approximately 223 mm^3. […] Measurements of the length (L) and width (W) of the tumor were taken via electronic caliper and the volume was calculated according to the following equation: V=L×W^2/2. […]
(§2) To refer to efficacy of therapeutic agents, parameters of amplitude (TGI.), durability (TGD) are used. […] Tumor growth inhibition is calculated by 100*(1−Tv/Cv) where Tv and Cv are the mean tumor volumes of the treated and control groups, respectively. […] TGD is calculated by 100*(Tt/Ct−1) where Tt and Ct are the median time periods to reach 1 cm^3 of the treated and control groups, respectively.

[4] = system: NCI-H460 human lung carcinoma xenograft; test: NCI-H460 xenograft tumor growth inhibition, with or without docetaxel; format: in vivo, mouse; conditions: QDx1, Ab095 8 IP, docetaxel 7.5 IV, ADC 10 mg/kg/day IP
Method: as §1, §2

[5] = system: NCI-H146 (human small cell lung cancer) xenograft; test: NCI-H146 xenograft tumor growth inhibition; format: in vivo, mouse; conditions: single dose 10 mg/kg/day QDx1/IP
Method: The in vivo efficacy of anti-CD98 hybridoma mAb conjugates were tested using Ab3-CZ and Ab5-CZ as examples in NCI-H146 (human small cell lung cancer) xenograft model. […] The cells were cultured as monolayers in RPMI-1640 culture media (Invitrogen, Carlsbad, Calif.) that was supplemented with 10% Fetal Bovine Serum (FBS, Hyclone, Logan, Utah). To generate xenografts, 5×10^6 (NCI-H146) viable cells were inoculated subcutaneously into the right flank of immune deficient female SCID-bg mice (Charles River Laboratories, Wilmington, Mass.). The injection volume was 0.2 mL and composed of Matrigel (BD, Franklin Lakes, N.J.). Tumors were size matched at approximately 212 mm^3. Antibodies and conjugates were formulated in phosphate buffered saline, pH 7.2 and injected intraperitoneally. […] Therapy began within 24 hours after size matching of the tumors. Mice weighed approximately 21 g at the onset of therapy. Tumor volume was estimated two to three times weekly. Measurements of the length (L) and width (W) of the tumor were taken via electronic caliper and the volume was calculated according to the following equation: V=L×W^2/2. Mice were euthanized when tumor volume reached 3,000 mm^3 or skin ulcerations occurred. Eight mice were housed per cage. Food and water were available ad libitum. Mice were acclimated to the animal facilities for a period of at least one week prior to commencement of experiments. Animals were tested in the light phase of a 12-hour light: 12-hour dark schedule (lights on at 06:00 hours). Anti-CD98 conjugates (10 mg/kg) were administered as a single dose (QDx1) intraperitoneally. A human IgG control antibody (MSL109, a humanized IgG1 antibody that binds to cytomegalovirus (CMV) glycoprotein H) was used as a negative control agent.
To refer to efficacy of therapeutic agents, parameters of amplitude (TGImax), durability (TGD) and response frequency (CR, PR, OR) of therapeutic response are used. The efficacy of inhibition of NCI-H146 xenografts growth with CD98-targeted ADCs is illustrated by Table 6, below. In the tables, to refer to efficacy, parameters of amplitude (TGImax) and durability (TGD) of therapeutic response are used. TGImax is the maximum tumor growth inhibition during the experiment. Tumor growth inhibition is calculated by 100*(1−Tv/Cv) where Tv and Cv are the mean tumor volumes of the treated and control groups, respectively. TGD or tumor growth delay is the extended time of a treated tumor needed to reach a volume of 1 cm^3 relative to the control group. TGD is calculated by 100*(Tt/Ct−1) where Tt and Ct are the median time periods to reach 1 cm^3 of the treated and control groups, respectively. Distribution of the response amplitude in a specific group is given by the frequency of complete responders (CR), partial responders (PR), and overall responders (OR). CR is the percentage of mice within a group with a tumor burden of 25 mm^3 for at least three measurements. PR is the percentage of mice within a group with a tumor burden larger than 25 mm^3 but less than one-half of the volume at onset of treatment for at least three measurements. OR is the sum of CR and PR.
The in vivo anti-tumor efficacy of selected humanized anti-CD98 mAb conjugates were tested in NCI-H146 (human small cell lung cancer) xenograft model, as described in Example 6. Tumor growth inhibition was reported as TGImax in Table 28.

[6] = ADCs of Table 28 (NCI-H146 xenograft study)

Row | Molecule | % agg by SEC [1] [%] | DAR by MS ([2]; ADCs of Table 27) | TGD [3] [%] | TGImax [3] [%] | TGD [4] [%] | TGImax [4] [%] | TGImax [5] [%] | DAR by MS [2, 6]
1 | B1 | 2.3 | 2.9 | 60 | 57 | 22 | 35 |  | 
2 | B2 | 7.4 | 1.4 |  |  |  |  | 69 | 1.8
3 | B3 | 17.9 | 1.3 |  |  |  |  | 61 | 3.0
4 | B4 | 11.7 | 1.9 |  |  |  |  | 61 | 2.2

— patent US20230120736A1, “ANTI-CD98 ANTIBODIES AND ANTIBODY DRUG CONJUGATES” (AbbVie Inc., priority 2016, published 2023)
